# Several values for one entry are separate records, joined by “and”; a condition that tells them apart may be missing. Equal values may be shown once. The campaign covered roughly 71,000 compounds. About 1,800 (2.5%) were called active. Inconclusive means that the source gave no clear call. Such entries were picked first, then a sample of the others. Calls follow the shape of the dose curve; as a rule, active = well fitted activation curve with a large enough effect in the signal ratio, with a control signal flat (not every such curve was filed as active); inconclusive = small, poorly fitted or top-dose-only effect, or effect the other way, or a change in a side signal; inactive = flat fitted curve, though single readings scatter; the % refers to the signal ratio. Where the call is inconclusive, the potency comes from a doubtful curve fit.
# Test: Cell signaling CRE-BLA (Fsk stim); as to activity change, negative = inhibition: % of control where 0% means no effect
# Details: CHO CRE-bla reporter (cAMP response element driving beta-lactamase), forskolin EC10, beta-lactamase ratio; activity change, negative = inhibition: at 38.2 µM (top of the series) unless noted
# How it was run: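 Reporter-gene assay: CHO cells with beta-lactamase behind cAMP responsive elements, co-treated with compound and EC10 NKH 477 for 3 hours at 37 degrees Celsius. Activity came from the 460/530 nm CCF4 emission ratio.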
# Potency is read from the fitted curve at half-maximal effect; tags tell the direction and shape of the fitted curve.
Compound,"activity change, negative = inhibition",Potency
COc1ccc(C(=O)N2CCSC2=S)cc1OC,inconclusive: -20.2%,–
CCCC(=O)Nc1cccc(-c2cn3ccsc3n2)c1,inconclusive: 16.9%,–
Cc1cc2c(c(N)n1)c(=O)oc1ccccc12,–,active: 2.51 µM
CCOC(=O)c1nnn(CC(=O)Nc2cccc(OC)c2)c1C(=O)OCC,inactive: -3.92%,–
COc1ccc(C)cc1-n1nnnc1SCC(=O)N1CCC(C(=O)Nc2nccs2)CC1,inconclusive: -41.2%,–
CCc1nnc(NS(=O)(=O)c2ccc(NC(=O)OC)cc2)s1,inactive: -6.26%,–
CCCN1Cc2cccc(C(=O)NCc3ccc4c(c3)OCO4)c2C1=O,–,"inconclusive: 10 µM [rising, partial curve]"
Cc1nn(-c2ccc(F)cc2F)c2c1-c1nc(N3CCCC3)ncc1CC2,–,"inconclusive: 12.6 µM [rising, partial curve]"
CCCN1Cc2cccc(C(=O)Nc3cc(OC)cc(OC)c3)c2C1=O,–,active: 6.31 µM
COC(=O)c1ccc(COc2cc(O)c3c(c2)OC(C)(C)CC3=O)cc1,inconclusive: 22.4%,–
N=c1n(CCN2CCCCC2)c2ccccc2n1CC(O)c1cccc(Br)c1 (configuration not stated),inconclusive: -10%,–
COc1cccc(-c2cc(=O)c3cc(O)ccc3o2)c1,inconclusive: -5.73%,–
Nc1cc(S(=O)(=O)C(F)(F)F)ccc1C(=O)O,inactive: -16.4%,–
CCOC(=O)N1CCN(c2nc3ccccc3nc2C(C#N)C(=O)NCCc2ccccc2)CC1 (configuration not stated),inconclusive: -11.5%,–
COc1ccc(-c2nnn(Cc3nc(N)nc(N4CCCCC4)n3)n2)cc1,inconclusive: -2.66%,–
COCCNc1ncnc2ccc(-c3ccccc3C)cc12,–,"inconclusive: 12.6 µM [rising, partial curve]"
O=C(NCc1ccco1)c1cccnc1-c1nc2ccccc2s1,–,"inconclusive: 25.1 µM [falling, single point]"
CCOC(=O)N1CCN(C2=Nc3cccc4cccc2c34)CC1,inconclusive: 10.9%,–
COc1ccc(/C=C(\C#N)C(N)=O)c(OC)c1,inactive: 0.675% [at 7.6 µM],–
C=CCNc1nc2c3ccccc3n(C(C)=O)c2s1,inactive: 15.1%,–
O=C(c1ccccc1)N1CCN(C(=O)N2CCOCC2)CC1,inconclusive: -0.472% [at 7.6 µM],–
CC(CCc1ccccc1)NC(=O)CN1CCN(Cc2ccccc2)C1=O (configuration not stated),inconclusive: -27.2%,–
Cc1ccc(OCC(O)Cn2c(=N)n(CCN3CCCCC3)c3ccccc32)cc1 (configuration not stated),inconclusive: 15.8%,–
COc1ccc(C(C(=O)NC2CCCC2)N(CCN(C)C)C(=O)c2snc(C(N)=O)c2N)cc1 (configuration not stated),–,"inconclusive: 5.01 µM [falling, single point]"
CCN(CC)CCN1C(=O)C2C3c4ccccc4C(c4ccccc43)C2C1=O (configuration not stated),–,"inconclusive: 0.00316 µM [falling, full curve, poor fit]"
COc1ccc(C)cc1-n1c(SCC(=O)Nc2cc(C)on2)nc2sc(C)c(C)c2c1=O,–,"inconclusive: 7.94 µM [rising, partial curve]"

Compound,"activity change, negative = inhibition",Potency
CCN1C(=O)N[C@@H](c2ccccc2)C1=O,inactive: 1% [at 17.1 µM],–
Cc1ccc(S(=O)(=O)N2CC(=O)Nc3ccccc32)cc1C,inconclusive: -5.05% [at 7.6 µM],–
CC1CCc2c(C(=O)Oc3cccc(-n4cnnn4)c3)csc2C1 (configuration not stated),–,"inconclusive: 25.1 µM [rising, single point]"
CCOCC(=O)Nc1c(C(=O)Nc2ccccc2OC)oc2ccccc12,inactive: 12.5%,–
O=c1cnc2cncnc2n1Cc1ccccc1Cl,–,"inconclusive: 6.31 µM [rising, partial curve]"
COc1ccc(-c2cc(C(=O)N3CCN(c4ccccn4)CC3)c3ccccc3n2)cc1,inconclusive: -14.6%,–
COc1cc2cc3c4cc(OC)c(OC)cc4cc[n+]3c(C)c2cc1OC,inactive: 1.02% [at 17.1 µM],–
Cc1nn(C(C)C(=O)O)c2ccccc12 (configuration not stated),inconclusive: 2.92%,–
O=C(COC(=O)c1c2c(nc3ccccc13)CCCC2)Nc1ccc2c(c1)OCO2,inactive: 23%,–
CN1CCN(c2cc3c(c4c2[nH]c2ccccc24)C(=O)CC(C)(C)C3)CC1,inactive: -5.41%,–
Cc1ccc(C)c(N2CCN(S(=O)(=O)c3ccc4c(c3)oc(=O)n4C)CC2)c1,inconclusive: 15.3%,–
COc1ccc(Cc2nccc3cc(OC)c(OC)cc23)cc1OC,–,active: 1.58 µM and active: 1 µM and active: 158 nM
CCN(CCCNC(=O)CN1C(=O)COc2ccccc21)c1ccccc1,inconclusive: -2.45%,–
CCc1c(C)nc2cc(-c3ccc(OC)c(OC)c3)nn2c1N1CCCC1,inconclusive: 22.4%,–
COc1cccc(C(=O)COC(=O)C(C)N2C(=O)c3ccccc3C2=O)c1 (configuration not stated),–,"inconclusive: 3.16 µM [falling, single point]"
CCOC(=O)c1ccccc1NC(=O)CSc1nnc(COc2ccccc2)n1CC,inactive: 4.06%,–
CCc1ccc2nc(NC3=NCN(CCOC)CN3)nc(C)c2c1,inactive: 2.13%,–
COCCOC(=O)c1c(NC(=O)CN2CCOCC2)sc(C(N)=O)c1C,inconclusive: -0.124%,–
CCC(C)NC(=O)CCC(=O)Nc1ccc2nc(N3CCOCC3)cc(C)c2c1 (configuration not stated),–,"inconclusive: 12.6 µM [rising, single point]"
COc1ccc(NS(=O)(=O)c2ccc(NS(=O)(=O)c3ccc(C)cc3)cc2)nn1,inconclusive: 3.43% [at 7.6 µM],–
CCN(Cc1ccccc1)Cc1cc(OC)cc(OC)c1,–,"inconclusive: 0.00398 µM [falling, full curve, poor fit]"
O=C(c1ccco1)N1CCN(c2nc3ccccc3n3nnnc23)CC1,inconclusive: 16.1%,–
CCOC(=O)c1[nH]c(COC(=O)c2ccccc2NC(=O)c2ccco2)c(C(=O)OCC)c1C,–,"inconclusive: 10 µM [rising, partial curve]"
CCOCCCn1c(=S)[nH]c2cc(C(=O)N3CCN(C)CC3)ccc2c1=O,inactive: -5.55%,–
CC(=O)c1cc(C#N)c(SCC(=O)OC(C)(C)C)nc1C,–,"inconclusive: 12.6 µM [rising, partial curve]"
COc1ccc2c(c1)-c1nc(NC(=O)c3ccco3)sc1CC2,inconclusive: 29.5%,–

# Source: PubChem BioAssay AID662 (National Center for Advancing Translational Sciences (NCATS), 2007)
